The BET-seq Pho4 binding data (Le et al. 2018)
This is one part of the list. Values were computed here from the reads of four pooled replicates and scatter widely.

Target: T1, Pho4 (S. cerevisiae) (UniProt P07270)
T1 sequence: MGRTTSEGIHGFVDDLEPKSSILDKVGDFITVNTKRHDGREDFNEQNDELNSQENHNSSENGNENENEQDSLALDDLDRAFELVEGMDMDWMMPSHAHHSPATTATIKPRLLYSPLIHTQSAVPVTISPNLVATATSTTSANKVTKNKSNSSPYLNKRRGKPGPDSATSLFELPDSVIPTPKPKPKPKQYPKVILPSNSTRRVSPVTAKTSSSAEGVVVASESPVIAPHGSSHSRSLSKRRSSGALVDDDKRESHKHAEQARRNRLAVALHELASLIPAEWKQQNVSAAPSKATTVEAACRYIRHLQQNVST
Assay: relative binding free energy (BET-seq); higher = weaker binding
Conditions: reference: library average

Sequence	relative binding free energy
CATTACACGTGGGTAT	-0.11 kcal/mol
GCGGTCACGTGCGGGT	0.06 kcal/mol
GGATGCACGTGGTCTG	-0.06 kcal/mol
TAAATCACGTGATATG	0.2 kcal/mol
TATGTCACGTGGAGCA	0.16 kcal/mol
CGGGTCACGTGACGGG	0.22 kcal/mol
TAGGGCACGTGGCACT	-0.25 kcal/mol
TGTAGCACGTGATGCG	0.18 kcal/mol
GTATTCACGTGCGGCG	0.2 kcal/mol
GGTTCCACGTGGCGGA	0.06 kcal/mol
CTGGTCACGTGGTGCG	-0.03 kcal/mol
GAATGCACGTGGGAGG	-0.01 kcal/mol
CTTTTCACGTGGTAAA	0.15 kcal/mol
TTGAACACGTGCTAGT	0 kcal/mol
ATCGGCACGTGGAGGT	-0.11 kcal/mol
GGGTTCACGTGAGCGA	0.4 kcal/mol
TAAAGCACGTGGATAG	-0.04 kcal/mol
TGGTGCACGTGTTCGT	-0.04 kcal/mol
GAAAGCACGTGGTATT	-0.04 kcal/mol
GGTTTCACGTGGGGAG	0.27 kcal/mol
ATCAGCACGTGTGTTT	0.06 kcal/mol
TAGGTCACGTGTGGCA	0.04 kcal/mol
TCTAACACGTGGGGCT	0 kcal/mol

Sequence	relative binding free energy
GAGTCCACGTGAGTGG	0.25 kcal/mol
ATGTGCACGTGAGAAG	0.16 kcal/mol
TTGGCCACGTGGGGCG	-0.26 kcal/mol
TGTAGCACGTGAGGGC	0.13 kcal/mol
GTCGGCACGTGCCGGG	-0.08 kcal/mol
AATGGCACGTGAATTG	0.17 kcal/mol
ATTAGCACGTGGTTCA	-0.19 kcal/mol
GGTTACACGTGTAGGG	0.22 kcal/mol
TATACCACGTGTGTGT	-0.14 kcal/mol
AAGGGCACGTGTTTGA	-0.14 kcal/mol
GGTTTCACGTGTATGT	0.19 kcal/mol
TGGGGCACGTGTTGCA	-0.15 kcal/mol
TGGTTCACGTGCTTGT	0.31 kcal/mol
CTTAGCACGTGGGTTA	-0.2 kcal/mol
CAAAGCACGTGTAGGT	0.03 kcal/mol
AGAGTCACGTGGTTAG	0.14 kcal/mol
ATGCTCACGTGTAGTG	0.17 kcal/mol
CGGGGCACGTGGTGTC	-0.11 kcal/mol
CTAGGCACGTGGGACG	-0.24 kcal/mol
TTCGGCACGTGTTGGT	-0.02 kcal/mol
CGGTGCACGTGGTTAT	-0.06 kcal/mol
GAGAGCACGTGATGAG	0.28 kcal/mol
AGAATCACGTGGGGTA	-0.14 kcal/mol

Sequence	relative binding free energy
TACTCCACGTGTGGGT	0.05 kcal/mol
TTTGCCACGTGTGGGG	-0.01 kcal/mol
CACGTCACGTGTTTGG	0.13 kcal/mol
GGGGCCACGTGTGGTG	0 kcal/mol
TGTTACACGTGTTCAT	0.02 kcal/mol
GCGTTCACGTGTGCTG	0.34 kcal/mol
ATTGACACGTGGGGTT	-0.12 kcal/mol
TATCGCACGTGGGATT	-0.2 kcal/mol
AGGCTCACGTGTGGGG	0.2 kcal/mol
TCGGACACGTGTGGTG	0.08 kcal/mol
TCCGGCACGTGGTGTG	-0.07 kcal/mol
TGTTTCACGTGATAAA	0.36 kcal/mol
ATACTCACGTGAGGGG	0.26 kcal/mol
TGGTTCACGTGAGTCG	0.49 kcal/mol
GATTGCACGTGAGTTA	0.33 kcal/mol
AGCCTCACGTGTGTGT	0.09 kcal/mol
GGGAGCACGTGTACTG	-0.02 kcal/mol
GGGGTCACGTGGTCGC	-0.08 kcal/mol
TGACGCACGTGCAGGG	-0.03 kcal/mol
ATGAACACGTGAGGTG	0.3 kcal/mol
ATTTTCACGTGTGTTA	0.33 kcal/mol
AAAGGCACGTGCGGGA	-0.14 kcal/mol
